A word on the % Inhibition: it is the drop in the measured response relative to a control, in per cent.

Molecules are shown by their SMILES. Hit rate of the full screen: of about 150,000 compounds, about 540 (0.36%) showed an effect of 50% or more. The list shows a part of the results.

This is an account of results in ChEMBL document CHEMBL4888484, “Replenishing the malaria drug discovery pipeline: Screening and hit evaluation of the MMV Hit Generation Library 1 (HGL1) against asexual blood stage Plasmodium falciparum ,using a nano luciferase reporter read-out” (2022).

The assay relates to Plasmodium falciparum. Put plainly: Primary screen in NF54 nanoGlo assay, in single point, at 2uM, 72h; a lower Z score goes with more inhibition. The format is functional, Erythrocyte. The following applies: timepoint 72 hour.
With `CCn1cc(-c2ccccc2)cc1C(=O)N[C@@H](C)c1ccccn1`, the “% Inhibition” value is listed as -7% and the Z score turned out to be 1.17.
In the case of `O=C1CCC(=O)N1c1cccc(S(=O)(=O)N2CCOCC2)c1`, the “% Inhibition” value is given as -9% and the Z score was 1.12.
On to `Cn1c(C(=O)N2CCCC2)nnc1N1CCC(Oc2ccccc2Cl)CC1`, for which the “% Inhibition” value is recorded as -13% and the Z score turned out to be 2.32.
With `Cc1ncsc1CN1CCC(n2cc(Br)cn2)CC1`, the “% Inhibition” value was -15% and the Z score is 1.6.
For `CC(C)(C)c1cc(CN2CC[C@H]3CC[C@@H](C2)N3)n[nH]1`, in that order: -12% and 1.46.
For `Cc1cccc(NC(=O)Cn2cnc3cc4c(cc32)OCCCO4)c1C`, in that order: -12% and 1.7.
The matching figures for `COc1cc(C)ccc1OCc1nc(C(=O)N[C@@H](C)C2CC2)co1`: 2% and -0.39.
For the compound `CN(C)C1CCN(C(=O)c2ccccc2-c2ccccc2)CC1`, the “% Inhibition” value is recorded as -9% and the Z score stood at 1.12.
The matching figures for `CCCCc1noc([C@H](C)N2CCOc3cc(OC)ccc3C2)n1`: 0% and 0.05.
For `Cc1cccc(NC(=O)CCc2c(C)nn(-c3ccc4nnc(C)n4n3)c2C)c1C`, the “% Inhibition” value is -16% and the Z score worked out at 2.05.
As to `CNC(=O)C[C@H]1CCN(C(=O)c2ncccc2O)C1`, the “% Inhibition” value is recorded as -13% and the Z score amounted to 2.59.
For the compound `Cc1onc(N)c1S(=O)(=O)N1CC2(CCC2)[C@@H]1C(C)C`, the “% Inhibition” value is on record as -5% and the Z score came to 0.58.
For `CCC[C@H]1CN(Cc2nnc(C)n2C)C[C@@H]1NC(=O)C1CCC1`, in that order: -1% and 0.1.
As for `CC1CCN([C@H]2CS(=O)(=O)C[C@@H]2S(=O)(=O)c2cccs2)CC1`, the “% Inhibition” value amounted to 7% and the Z score is -0.88.
With `Cc1cc(S(=O)(=O)[C@@H](CN2C(=O)c3ccccc3C2=O)c2cccnc2)ccc1F`, the “% Inhibition” value is -9% and the Z score worked out at 1.27.
In the case of `C#CCNC(=O)c1cc(-c2ccc3c(c2)OCO3)n(CC)n1`, the “% Inhibition” value is -22% and the Z score stood at 1.98.
Regarding `COc1cncc(O[C@H]2CCCN(S(=O)(=O)C3CC3)C2)n1`, the “% Inhibition” value was -9% and the Z score stood at 1.53.
As to `COc1ccc(-c2noc(Cn3cnc4ccccc4c3=O)n2)cc1OC`, the “% Inhibition” value was -5% and the Z score turned out to be 0.61.
As to `CCC(=O)N(Cc1c(-c2ccccc2)noc1N(CC)CC)C(C)C`, the “% Inhibition” value was -17% and the Z score was determined as 1.98.
For the compound `CC(C)(O)Cn1nc(-c2c[nH]c3ccccc23)nc1C[C@H]1CCCOC1`, the “% Inhibition” value is listed as -5% and the Z score is listed as 0.77.
For `COC(=O)c1c(NS(=O)(=O)C[C@H](C)OC)c2cccnc2n1C`, the “% Inhibition” value was -1% and the Z score was found to be 0.15.
`Cc1cc2nc(N3CCOCC3)n(CC(=O)Nc3cccc(F)c3)c(=O)c2n1C`: the “% Inhibition” value is on record as -18% and the Z score was determined as 1.98.
On to `Cc1cccc(-c2ncc(C(=O)N3CCC(c4nncn4C)CC3)c(O)n2)c1`, for which the “% Inhibition” value was 1% and the Z score is -0.06.
